Part of at least one peptide drawing is inferred or uncertain, most often the ends.
Test system: Escherichia coli
Type: cell-based
Procedure: Bactocasitone (manufactured by Difco Laboratory Co.) was dissolved at a concentration of 1% in purified water, the pH was adjusted to 7.0 with 1M sodium hydroxide, the solution was sterilized at 115° C. for 15 minutes and a basal medium (liquid medium) was prepared. Each sample was dissolved at a concentration of […] in purified water, sterilization was performed by using a sterilization filter (manufactured by […] Co.) and test media, prepared by adding samples at concentrations of 1, 5, 10, 50 and 100 ppm to the basal medium, as well as a control medium with no added samples, were prepared. […] wherein A is the difference in turbidity of the test culture medium (the difference between the turbidity of the test culture medium after 16 hours of culture and the turbidity of the test culture medium before the culturing) and B is the turbidity of the control medium (the difference between the turbidity of the control culture medium after 16 hours of culture and the turbidity of the control culture medium before the culturing). The percentages of the rate of inhibition of proliferation are not in weight (same hereinafter).

Structure (SMILES) | antimicrobial effect (in words) (at a concentration of 5 ppm) | antimicrobial properties compared with the peptide isolated from bovine LF hydrolysate (same method as in Experiment 1)
CC[C@H](C)[C@H](NC(=O)[C@H](CO)NC(=O)[C@@H]1CCCN1C(=O)[C@H](C)NC(=O)CNC(=O)[C@H](CC(C)C)NC(=O)[C@H](CCCCN)NC(=O)[C@H](CCCCN)NC(=O)[C@H](CCSC)NC(=O)[C@H](CCCNC(=N)N)NC(=O)[C@H](Cc1c[nH]c2ccccc12)NC(=O)[C@H](CCC(N)=O)NC(=O)[C@H](Cc1c[nH]c2ccccc12)NC(=O)[C@H](CCCNC(=N)N)NC(=O)[C@H](CCCNC(=N)N)NC(=O)[C@H](CSCNC(C)=O)NC(=O)[C@H](CCCCN)NC(=O)[C@@H](N)Cc1ccccc1)C(=O)N[C@H](C(=O)N[C@@H](CSCNC(C)=O)C(=O)N[C@H](C(=O)N[C@@H](CCCNC(=N)N)C(=O)N[C@@H](CCCNC(=N)N)C(=O)N[C@@H](C)C(=O)N[C@@H](Cc1ccccc1)C(=O)O)C(C)C)[C@@H](C)O [acetoamidomethylated peptide] | antimicrobial effect | –
CC[C@H](C)[C@@H]1NC(=O)[C@H](CO)NC(=O)[C@@H]2CCCN2C(=O)[C@H](C)NC(=O)CNC(=O)[C@H](CC(C)C)NC(=O)[C@H](CCCCN)NC(=O)[C@H](CCCCN)NC(=O)[C@H](CCSC)NC(=O)[C@H](CCCNC(=N)N)NC(=O)[C@H](Cc2c[nH]c3ccccc23)NC(=O)[C@H](CCC(N)=O)NC(=O)[C@H](Cc2c[nH]c3ccccc23)NC(=O)[C@H](CCCNC(=N)N)NC(=O)[C@H](CCCNC(=N)N)NC(=O)[C@@H](NC(=O)[C@H](CCCCN)NC(=O)[C@@H](N)Cc2ccccc2)CSSC[C@@H](C(=O)N[C@H](C(=O)N[C@@H](CCCNC(=N)N)C(=O)N[C@@H](CCCNC(=N)N)C(=O)N[C@@H](C)C(=O)N[C@@H](Cc2ccccc2)C(=O)O)C(C)C)NC(=O)[C@H]([C@@H](C)O)NC1=O [chemically-synthesized peptide] | – | equivalent
